B1: OR4K15 (parent)
chain: GUUAACGGUCAUAGGCCAUGGAAACUAGGAGCACCAUUUCGCUGCCAGUGAAGAAAUGAACAAAGAAAAUCUGGGCCAGGCAGGCAUCAAAAGAAAUAGUCUUGCGCUCAACCAGAAAGUCUGUAAUCAUUUUAAGGGUA

Read counts are not given, so values of variants with three or more changes are uncertain.

Variants of B1 are the subject of the series. The series is described as follows: self-cleavage, relative activity (ratio to wild type); higher = more cleavage; in vitro, sequencing; the parent is a self-cleaving ribozyme.
For the variant GUUAACGGUCAUAGGCCACGGAAACUAGGAGCACCAUUUCGCUGCCAGUGAAGAGAUGAACGAAGAAAAUCUGGGCCAGGCAGGCAUCAAAAGAAAUAGUCCUGCGCUCAACCAGAAAGUCUGUAAUCAUUUUAAGGGUA [U19C A55G A62G U102C], the self-cleavage came to 2.05.

Consider GUUAACGGUCAUAGGCCACGGAAACUAGGAGCACCAUUUCGCUGCCAGUGAAGAAAUGGACAAAGAAAAUCUGGGCCAGGCAGGCAUCAAAAGAAAUAGUCUUGCGCUCGACCAGAAAGUCUGUAAUCAUUUUAAGGGUA [U19C A59G A110G], for which the self-cleavage amounted to 0.21.

For the variant GUUAACGGUCAUAGGCCACGGAAACUAGGAGCACCAUUUCGCUGCCUGUGAAGAAAUGAACAAAGAAAAUCUGGGCCAGGCAGGCAUCAAAAGAAAUAGUCUUGCGAUCAACCAGAAAGUCUGUAAUCAUUUUAAGGGAA [U19C A47U C107A U139A], the self-cleavage is 0.02.

Take GUUAACGGUCAUAGGCCACGGAAACUAGGAGCACCAUUUCGCUGCCAGUGAAGAAAUGAGCAAAGAGAAUCUGGGCCAGGCAGGCAUCAAAAGAAAUAGCCUUGCGCUCAACCAGAAAGUCUGUAAUCAUUUUAAGGGUA [U19C A60G A67G U100C]: the self-cleavage was found to be 1.8.

In the case of GUUAACGGUCAUAGGCCACGGAAACUAGGAGCACCAUUUCGCUGCCAGUGAAGAAAUGAACGAAGAAAAUCUGGGCCAGGCAGGCAUCGAAAGAAAUAGUCUUGCGCUCAACCAGAAAGUCUGUAAUCAUUUUAAGGGUA [U19C A62G A89G], the self-cleavage stood at 1.7.

As for GUUAACGGUCAUAGGCCACGGAAACUAGGAGCACCAUUUCGCUGCCAGUGAAGAAAUGAACAAAGAGAAUCUGGGCCAGGCAGGCAUCAAAAGAGAUAGUCUUGCGCUCAACCAGGAAGUCUGUAAUCAUUUUAAGGGUA [U19C A67G A95G A116G], the self-cleavage turned out to be 1.62.

For GUUAACGGUCAUAGGCCACGGAAACUAGGAGCACCAUUUCGCUGCCAGUGAAGAAAUGAACGAAGAAAACCUGGGCCAGGCAGGCAUCAAAAGAAAUAGUCUUGCGCUCAACCAGAAAGUCUGUAAUCAUUUUAAGGGUA [U19C A62G U70C], the self-cleavage was 0.

For the variant GUUAACGGUCAUAGGCCACGGAAACUAGGAGCACCAUUUCGCUGCCAGUGAAGGAAUGAACAAAGAAAAUCUGGGCCAGGCAGGCAUCAAAAGAAAUAGUCUUGCGCUCAACCAGAAAGUCUGUAAUCAUCUUAAGGGUA [U19C A54G U131C], the self-cleavage turned out to be 0.98.

For GUUAACGGUCAUAGGCCACGGAAACUAGGAGCACCAUUUCGCUGCCAGUGAGGAAAUGAACAAAGAAAAUCUGGGCCAGGCGGGCAUCAAAAGAAAUAGUCUUGCGCUCAACCAGAAAGUCUGUAAUCGUUUUAAGGGUA [U19C A52G A82G A129G], the self-cleavage was found to be 0.36.

GUUAACGGUCAUAGGCCACGGAAACUAGGAGCACCAUUUCGCUGCCAGUGAGGAAAUGAGCAAAGAAAAUCUGGGCCAGGCAGGCAUCAAAAGAAAUAGUCUUGCGCUCAACCAGAAAGUCUGUAAUCAUUUUAAGGGUA [U19C A52G A60G]: the self-cleavage worked out at 1.05.

Regarding GUUAACGGUCAUAGGCCACGGAAACUAGGAGCACCAUUUCGCUGCCAGUGAAGAAAUGAACAAAGGGAAUCUGGGCCAGGCAGGCAUCAAAAGAAAUAGUCUUGCGCUCAACCAGAAAGCCUGUAAUCAUUUUAAGGGUA [U19C A66G A67G U120C], the self-cleavage was 1.04.

As for GUUAACGGUCAUAGGCCACGGAAACUAGGAGCACCAUUUCGCUGCCAGUGAAGAGAUGAACAAGGAAAAUCUGGGCCAGGCAGGCAUCAAAAGAAAUAGUCUUGCGCUCAACCAGAAAGUCUGUAAUCACUUUAAGGGUA [U19C A55G A64G U130C], the self-cleavage was found to be 0.55.

With GUUAACGGUCAUAGGCCACGGAAACUAGGAGCACCAUUUCGCUGCCAGUGAAGAAAUGGACGAAGAAAAUCUGGGCCAGGCAGGCAUCAAAAGAAAUAGUCUUGCGCUCAACCAGAAAGUCUGUAAUCAUUUUAAGGGUA [U19C A59G A62G], the self-cleavage is 1.07.

In the case of GUUAACGGUCAUAGGCCACGGAAACUAGGAGCACCAUUUCGCUGCCAGUGAAGAAAUGGACAAAGAAAAUCCGGGCCAGGCAGGCACCAAAAGAAAUAGUCUUGCGCUCAACCAGAAAGUCUGUAAUCAUUUUAAGGGUA [U19C A59G U72C U87C], the self-cleavage worked out at 0.5.

Take GUUAACGGUCAUAGGCCACGGAAACUAGGAGCACCGUUUCGCUGCCAGUGAAGAAAUGAACAAAGAAAAUCUGGGCCGGGCAGGCAUCAAAAGAAAUAGUCUUGCGCUCAACCAGAAAGUCUGUAAUCAUUUUAAGGGUA [U19C A36G A78G]: the self-cleavage worked out at 0.38.

For the variant GUUAACGGUCAUAGGCCACGGAAACUAGGAGCACCUUAUCGCUGCCAGUGAAGAAAUGAACAAAGAAAAUCUGGGCCAGGCAGGCAUCUAAAGAGAUAGUCUUGCGCUCAACCAGAAGGUCUGUAAUCAUUUUAAGGGGA [U19C A36U U38A A89U A95G A118G U139G], the self-cleavage is 0.83.

In the case of GUUAACGGUCAUAGGCCACGGAAACUAGGAGCACCAUUUCGCUGCCAGUGGAGAAGUGAACAAAGGAAAUCUGGGCCAGGCAGGCAUCAAAAGAAAUAGUCUUGCGCUCAACCAGAAAGUCUGUAAUCAUUUUAAGGGUA [U19C A51G A56G A66G], the self-cleavage turned out to be 1.02.

Take GUUAACGGUCAUAGGCCACGGAAACUAGGAGCACCAUUUCGCUGCCAGUGUAGAAAUGAACAAAGGAAAUCUGGGCCAGGCAGGCAUCAAAAGAAAUAGUCUUGCGCUCAACCAGAAAGUCCGUAAUCAUUUUAAGGGUA [U19C A51U A66G U122C]: the self-cleavage was determined as 1.62.

GUUAACGGUCAUAGGCCACGGAAACUAGGAGCACCAUUUCGCUGCCAGUGAAGGAAUGAACAAAGAAAAUCUGGGCCAGGCAGGCAUCAAAAGAAAUAGUCUUGCGCUCAACCAGAAAGUCUGUAAUCAUUUUGAGGGUA [U19C A54G A134G]: the self-cleavage turned out to be 0.7.

As for GUUAACGGUCAUAGGCCACGGAAACUAGGAGCACCAUUUCGCUGCCAGUGUAGAAAUGAACAAAGGAAAUCUGGGCCAGGCAGGCAUCAAAAGAGAUAGUCUUGCGCUCAACCAGAAAGUCUGUAAUCACUUUAAGGGUA [U19C A51U A66G A95G U130C], the self-cleavage was determined as 0.88.

GUUAACGGUCAUAGGCCACGGAAACUAGGAGCACCAUUUCGCUGCCAGUGAAGGAAUGAACAAAGAAGAUCUGGGCCUGGCGGGCAUCAAAAGAAAUAGUCUUGCGCUCAACCAGAAAGUCUGUAAUCGUUUUAAGGGUA [U19C A54G A68G A78U A82G A129G]: the self-cleavage was determined as 0.04.

Source of the values: the RNAGym collection of RNA variant scans (doi:10.7554/elife.90254).
